biological target: T1, hCRTH2 (Homo sapiens, UniProt Q9Y5Y4); experiment: biochemical; conditions: Ki (nM), Table A; Radioligand Binding Assay A, [3H]PGD2, HEK-hCRTH2 membranes
T1 sequence (Q9Y5Y4 1-395): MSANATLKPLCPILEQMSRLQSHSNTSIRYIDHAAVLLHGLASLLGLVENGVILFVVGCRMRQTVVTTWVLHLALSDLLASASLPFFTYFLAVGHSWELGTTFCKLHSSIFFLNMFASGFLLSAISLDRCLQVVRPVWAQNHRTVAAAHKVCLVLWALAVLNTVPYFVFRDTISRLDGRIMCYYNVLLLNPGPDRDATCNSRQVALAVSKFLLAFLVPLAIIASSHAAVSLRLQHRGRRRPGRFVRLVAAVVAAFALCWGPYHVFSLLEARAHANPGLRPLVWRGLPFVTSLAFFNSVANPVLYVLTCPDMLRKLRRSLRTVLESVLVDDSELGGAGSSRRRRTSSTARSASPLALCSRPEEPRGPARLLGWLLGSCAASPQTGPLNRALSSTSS

**Q.** For O=C(O)CCC(=O)N(C1CC1)C1c2ccc(F)cc2N(C(=O)OCc2nc3ccccc3s2)C2CCCC21 (single isomer, unassigned) [compound 154, 4-(((cis, cis)-4-((benzo[d]thiazol-2-ylmethoxy)carbonyl)-6-fluoro-2,3,3a,4,9,9a-hexahydro-1H-cyclopenta[b]quinolin-9-yl)(cyclopropyl)amino)-4-oxobutanoic acid], which Ki is on record?
**A.** Its Ki is 5.1 to 20 nM.

**Q.** How did the Ki turn out when O=C(O)CCC(=O)N(C1CC1)C1c2ccc(Cl)cc2N(C(=O)O[C@H]2CCc3ccccc32)C2CCCC21 (single isomer, unassigned) [22V] was run?
**A.** Its Ki is 1 to 5 nM.

**Q.** Which Ki does the source give for O=C(O)CCC(=O)N(C1CC1)C1c2cc(F)c(Cl)cc2N(C(=O)c2ccc(OC(F)(F)F)cc2)C2CCCC21 (single isomer, unassigned) [17BY, 4-[[cis,cis-6-chloro-7-fluoro-2,3,3a,4,9,9a-hexahydro-4-[4-(trifluoromethoxy)benzoyl]-1H-cyclopenta[b]quinolin-9-yl]cyclopropylamino]-4-oxobutanoic acid] here?
**A.** Its Ki is 1 to 5 nM.

**Q.** Which Ki does the source give for CCN(C(=O)CCC(=O)O)C1c2ccccc2N(C(=O)OCc2ccc(F)cc2)C2CCC12 (single isomer, unassigned) [compound 89, 4-(ethyl(cis, cis-3-((4-fluorobenzyloxy)carbonyl)-1,2,2a,3,8,8a-hexahydrocyclobuta[b]quinolin-8-yl)amino)-4-oxobutanoic acid] here?
**A.** Its Ki is 20.1 to 200 nM.

**Q.** With O=C(O)CCC(=O)N(C1CC1)C1c2ccccc2N(C(=O)C2CC2c2ccccc2)C2CCCC21 (racemic) [17BE, 4-(cyclopropyl(cis,cis-4- trans-2-phenylcyclopropanecarbonyl)-2,3,3a,4,9,9a-hexahydro-1H-cyclopenta[b]quinolin-9-yl)amino)-4-oxobutanoic acid] as the compound, how does the Ki read?
**A.** Its Ki is 5.1 to 20 nM.

**Q.** How did the Ki turn out when CN(C(=O)CCC(=O)O)C1c2ccccc2N(C(=O)c2cccc(Cl)c2)C2CCCC12 (racemic) [17AA] was run?
**A.** Its Ki is 20.1 to 200 nM.

**Q.** Which Ki does the source give for CCN(C(=O)CCC(=O)O)C1c2ccccc2N(C(=O)c2ccc(C(F)(F)F)cc2)C2CCC12 (single isomer, unassigned) [compound 88, 4-(ethyl(cis, cis-3-(4-(trifluoromethyl)benzoyl)-1,2,2a,3,8,8a-hexahydrocyclobuta[b]quinolin-8-yl)amino)-4-oxobutanoic acid] here?
**A.** Its Ki is 5.1 to 20 nM.

**Q.** C=Cc1ccc2c(c1)[C@@H](N(C(=O)CCC(=O)O)C1CC1)[C@H]1CCC[C@H]1N2C(=O)c1ccc(OC(F)(F)F)cc1 (single isomer, unassigned) [compound 53, 4-(Cyclopropyl((cis,cis,)-4-(4-(trifluoromethoxy)benzoyl)-7-vinyl-2,3,3a,4,9,9a-hexahydro-1H-cyclopenta[b]quinolin-9-yl)amino)-4-oxobutanoic acid] was tested. Which Ki did it give?
**A.** The Ki was 5.1 to 20 nM.

**Q.** COc1ccccc1NC(=O)N1c2ccccc2C(N(C(=O)CCC(=O)O)C2CC2)C2CCCC21 (racemic) [23F, 4-[cyclopropyl[cis,cis-2,3,3a,4,9,9a-hexahydro-4-[[(2-methoxyphenyl)amino]carbonyl]-1H-cyclopenta[b]quinolin-9-yl]amino]-4-oxobutanoic acid] was tested. Which Ki did it give?
**A.** Its Ki is 20.1 to 200 nM.

**Q.** Which Ki does the source give for CCN(C(=O)CCC(=O)O)C1c2ccccc2N(C(=O)OCc2cc(F)cc(F)c2)C2CCCC12 (single isomer, unassigned) [compound 73, 4-[(3,5-difluorophenyl)methyl] cis, cis-[(3-carboxy-1-oxopropyl)ethylamino]-1,2,3,3a,9,9a-hexahydro-4H-cyclopenta[b]quinoline-4-carboxylate] here?
**A.** The Ki was 20.1 to 200 nM.

**Q.** For O=C(O)CCC(=O)N(C1CC1)C1c2cc(F)c(Cl)cc2N(C(=O)OCc2cccc(OC(F)(F)F)c2)C2CCCC21 (single isomer, unassigned) [22G, 4-[[3-(trifluoromethoxy)phenyl]methyl] cis, cis-[(3-carboxy-1-oxopropyl)cyclopropylamino]-6-chloro-7-fluoro-1,2,3,3a,9,9a-hexahydro-4H-cyclopenta[b]quinoline-4-carboxylate], which Ki is on record?
**A.** The Ki was 5.1 to 20 nM.

**Q.** O=C(O)CCC(=O)N(C1CC1)[C@H]1c2cc(F)ccc2N(C(=O)OC2CCc3ccccc3C2)[C@H]2CCC[C@H]21 (mixture of isomers) [22S, 4-(1,2,3,4-tetrahydro-2(RS)-naphthalenyl) (3aS,9R,9aR)-[(3-carboxy-1-oxopropyl)cyclopropylamino]-7-fluoro-1,2,3,3a,9,9a-hexahydro-4H-cyclopenta[b]quinoline-4-carboxylate] was tested. Which Ki did it give?
**A.** Its Ki is 5.1 to 20 nM.

**Q.** Which Ki does the source give for CCN(C(=O)CCC(=O)O)C1c2ccccc2N(C(=O)OCc2cc(F)cc(F)c2)C2CCCC12 (single isomer, unassigned) [22A, 4-[(3,5-difluorophenyl)methyl] cis, cis-[(3-carboxy-1-oxopropyl)ethylamino]-1,2,3,3a,9,9a-hexahydro-4H-cyclopenta[b]quinoline-4-carboxylate] here?
**A.** The Ki was 201 to 7500 nM.

**Q.** How did the Ki turn out when O=C(O)CCC(=O)N(C1CC1)C1c2cc(F)c(F)cc2N(C(=O)c2ccc(OC(F)(F)F)cc2)C2CCC21 (single isomer, unassigned) [compound 52, 4-(Cyclopropyl(cis,cis-5,6-difluoro-3-(4-(trifluoromethoxy)benzoyl)-1,2,2a,3,8,8a-hexahydrocyclobuta[b]quinolin-8-yl)amino)-4-oxobutanoic acid] was run?
**A.** Its Ki is 1 to 5 nM.

**Q.** For O=C(O)CCC(=O)N(C1CCC1)C1c2ccc(Cl)cc2N(C(=O)c2ccc(C(F)(F)F)cc2)C2CCCC21 (single isomer, unassigned) [17CS, 4-[[cis,cis-6-chloro-2,3,3a,4,9,9a-hexahydro-4-[4-(trifluoromethyl)benzoyl]-1H-cyclopenta[b]quinolin-9-yl]cyclobutylamino]-4-oxobutanoic acid], which Ki is on record?
**A.** Its Ki is 5.1 to 20 nM.

**Q.** With CCOc1cnc(-c2ccc(C(=O)N3c4ccccc4C(N(C(=O)CCC(=O)O)C4CC4)C4CCCC43)cc2)nc1 (racemic) [18P, 4-[cyclopropyl[cis,cis-4-[4-(5-ethoxy-2-pyrimidinyl)benzoyl]-2,3,3a,4,9,9a-hexahydro-1H-cyclopenta[b]quinolin-9-yl]amino]-4-oxobutanoic acid] as the compound, how does the Ki read?
**A.** The Ki was 20.1 to 200 nM.

**Q.** For O=C(O)CCC(=O)N(C1CC1)C1c2ccccc2N(C(=O)c2ccc(OC(F)F)cc2)C2CCCC21 (single isomer, unassigned) [17BP, 4-[cyclopropyl[cis,cis-4-[4-(difluoromethoxy)benzoyl]-2,3,3a,4,9,9a-hexahydro-1H-cyclopenta[b]quinolin-9-yl]amino]-4-oxobutanoic acid], which Ki is on record?
**A.** Its Ki is 5.1 to 20 nM.

**Q.** Which Ki does the source give for O=C(O)c1ccccc1C(=O)N(C1CC1)[C@@H]1c2ccccc2N(C(=O)c2ccc(OC(F)(F)F)cc2)[C@@H]2CCC[C@@H]21 (racemic) [17Ci, 2-[[cyclopropyl[cis,cis-2,3,3a,4,9,9a-hexahydro-4-[4-(trifluoromethoxy)benzoyl]-1H-cyclopenta[b]quinolin-9-yl]amino]carbonyl]benzoic acid] here?
**A.** Its Ki is 201 to 7500 nM.

**Q.** For CCN(C(=O)CCC(=O)O)C1c2ccccc2N(C(=O)C2CC2c2ccccc2)C2CCCC12 (single isomer, unassigned) [compound 69, 4-[ethyl[cis, cis-2,3,3a,4,9,9a-hexahydro-4-[(2-phenyl-1-cyclopropyl)carbonyl]-1H-cyclopenta[b]quinolin-9-yl]amino]-4-oxobutanoic acid], which Ki is on record?
**A.** The Ki was 1 to 5 nM.

**Q.** Which Ki does the source give for O=C(O)CCC(=O)N(C1CC1)C1c2ccc(Cl)cc2N(C(=O)c2ccc(OC(F)(F)F)cc2)C2CCC21 (single isomer, unassigned) [27H, 4-[[cis, cis-5-chloro-1,2,2a,3,8,8a-hexahydro-3-[4-(trifluoromethoxy)benzoyl]cyclobuta[b]quinolin-8-yl]cyclopropylamino]-4-oxobutanoic acid] here?
**A.** Its Ki is 201 to 7500 nM.
